The supplement of paper PMC10338343
± gives the standard deviation. This is a selection; strong and weak results do not stand in their true shares.

Each sequence was assayed on MIWI (PIWIL1) piRISC loaded with L1MC piRNA (30 nt) (assay: pre-steady-state target cleavage rate (min^-1); MIWI and MILI are mouse PIWI proteins and EfPiwi is from a freshwater sponge; tags in brackets are library labels; higher = faster piRNA-guided slicing of the target). Conditions: guide: L1MC piRNA 5'p-UAACUAAAUACUAUGCAAGCUGUAGGUCCU; auxiliary factor: 500 nM mouse GTSF1.
Procedure: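 Cleave-'n-Seq: a library of target RNAs (target site embedded in constant flanks, ACAGCATTCCGCGTTAGTGATATCCG... 5' flank; DNA-blocked outside the site) at 0.1 nM was incubated with 1 nM active mouse MILI or MIWI piRISC (synthetic 5'-monophosphorylated piRNA guide) with or without 500 nM mouse GTSF1 at 33 °C for 1 min to 16 h. Uncleaved targets were sequenced and normalised to non-target controls, and the pooled three trials were fitted to a burst-and-steady-state model to give the pre-steady-state cleavage rate (min^-1; k3 is constrained to at most 1e-4). Sequence is the target site only; target names encode pairing extent (gX:gY) and contiguous / 1-mismatch / 2-mismatch / bulge geometry. Fits with R² ≤ 0 are excluded.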
With UCCUGGAUGUGCAUGCAUAGUAUUUAGAUA the “pre-steady-state target cleavage rate” value was 0.0193 ± 0.0075.
For UCCUGGUACAGCAUGCAUAGUAUUUUGUUA, the “pre-steady-state target cleavage rate” value was 0.315 ± 0.037.
UGGACCUACAGGUUGCAUAGUAUUUACAAA was tested, and the “pre-steady-state target cleavage rate” value was 0.165 ± 0.028.
With UGGGCCUACAGCUUGCAUAGUAUUUAGUUA the “pre-steady-state target cleavage rate” value was 1.39 ± 0.08.
UCCUGCUACCGCUUGCAUAGUAUUUAGUUA was tested, and the “pre-steady-state target cleavage rate” value was 1.1 ± 0.1.
In the case of UCCUGGUACAGCUUGCUUAGUAUUUAGAAA, the “pre-steady-state target cleavage rate” value is reported as 0.196 ± 0.038.
With AGGACCUUCAGCUUGCAUAGUAUAUAGUUA the “pre-steady-state target cleavage rate” value was 0.827 ± 0.057.
In the case of UCCUGGUACAGGAUGCAUAGUAUUUAGUAA, the “pre-steady-state target cleavage rate” value is reported as 0.279 ± 0.04.
With UCCUGGUACAGGUUGCUUAGUAUUUAGUUA the “pre-steady-state target cleavage rate” value was 0.987 ± 0.066.
With UCCUGGAUCUGGUUGCAUAGUAUUUAGUUA the “pre-steady-state target cleavage rate” value was 0.199 ± 0.018.
With UCCUGGAUCAGCUUGCAUAGUAUUUAGUGA the “pre-steady-state target cleavage rate” value was 0.896 ± 0.04.
With UCGAGGUACAGCUUGCAUAGUAUUUUCAAA the “pre-steady-state target cleavage rate” value was 0.278 ± 0.038.
In the case of UCCAGCUACAGCUUGCAUAGUAUUUUGUUA, the “pre-steady-state target cleavage rate” value is reported as 0.745 ± 0.034.
With UCCUGCUACAGCUUGCAUUCUAUUUAGAAA the “pre-steady-state target cleavage rate” value was 0.0941 ± 0.032.
AGGACCUACAGCUUGCACAGUAUUUAGUUA was tested, and the “pre-steady-state target cleavage rate” value was 1.14 ± 0.028.
With UGGACCUACAGCUUGCAUAGUAUUUUCAUA the “pre-steady-state target cleavage rate” value was 0.185 ± 0.029.
For UCCUGGAUGUCCUUGAAUAGUAUUUAGUUA, the “pre-steady-state target cleavage rate” value was 0.0223 ± 0.0065.
For UCGACCAACAGCUUGCAAAGUAUUUAGUUA, the “pre-steady-state target cleavage rate” value was 1.29 ± 0.043.
In the case of UCCUGGAUCAGCUUGCAUAGAAUUUAGAUA, the “pre-steady-state target cleavage rate” value is reported as 0.124 ± 0.026.
UCCUGGAACAGCUUGCAGAGUAUUUAGUUA was tested, and the “pre-steady-state target cleavage rate” value was 0.779 ± 0.06.
For UCCUGCAAGAGCUUGCAUAGUAUUUAGUUA, the “pre-steady-state target cleavage rate” value was 1.01 ± 0.097.

Same assay, conditions: guide: L1MC piRNA 5'p-UAACUAAAUACUAUGCAAGCUGUAGGUCCU; auxiliary factor: none (no GTSF1)
For UCCUGGAUGUGCAUGCAUAGUAUUUAGAUA, the “pre-steady-state target cleavage rate” value was 0.0033 ± 0.0028.
For UCCUGGUACAGCAUGCAUAGUAUUUUGUUA, the “pre-steady-state target cleavage rate” value was 0.0157 ± 0.0031.
In the case of UGGACCUACAGGUUGCAUAGUAUUUACAAA, the “pre-steady-state target cleavage rate” value is reported as 0.00296 ± 0.0022.
In the case of UGGGCCUACAGCUUGCAUAGUAUUUAGUUA, the “pre-steady-state target cleavage rate” value is reported as 0.0716 ± 0.013.
UCCUGCUACCGCUUGCAUAGUAUUUAGUUA was tested, and the “pre-steady-state target cleavage rate” value was 0.0571 ± 0.011.
UCCUGGUACAGCUUGCUUAGUAUUUAGAAA was tested, and the “pre-steady-state target cleavage rate” value was 0.00383 ± 0.0021.
In the case of AGGACCUUCAGCUUGCAUAGUAUAUAGUUA, the “pre-steady-state target cleavage rate” value is reported as 0.0427 ± 0.009.
In the case of UCCUGGUACAGGUUGCUUAGUAUUUAGUUA, the “pre-steady-state target cleavage rate” value is reported as 0.0135 ± 0.0031.
In the case of UCCUGGAUCUGGUUGCAUAGUAUUUAGUUA, the “pre-steady-state target cleavage rate” value is reported as 0.00775 ± 0.0026.
For UCCUGGAUCAGCUUGCAUAGUAUUUAGUGA, the “pre-steady-state target cleavage rate” value was 0.0419 ± 0.0085.
With UCGAGGUACAGCUUGCAUAGUAUUUUCAAA the “pre-steady-state target cleavage rate” value was 0.00215 ± 0.0021.
With UCCAGCUACAGCUUGCAUAGUAUUUUGUUA the “pre-steady-state target cleavage rate” value was 0.0287 ± 0.0046.
For AGGACCUACAGCUUGCACAGUAUUUAGUUA, the “pre-steady-state target cleavage rate” value was 0.0648 ± 0.011.
In the case of UGGACCUACAGCUUGCAUAGUAUUUUCAUA, the “pre-steady-state target cleavage rate” value is reported as 0.00833 ± 0.0025.
In the case of UCCUGGAUGUCCUUGAAUAGUAUUUAGUUA, the “pre-steady-state target cleavage rate” value is reported as 0.00268 ± 0.0026.
For UCGACCAACAGCUUGCAAAGUAUUUAGUUA, the “pre-steady-state target cleavage rate” value was 0.0448 ± 0.01.
For UCCUGGAUCAGCUUGCAUAGAAUUUAGAUA, the “pre-steady-state target cleavage rate” value was 0.0115 ± 0.005.
UCCUGGAACAGCUUGCAGAGUAUUUAGUUA was tested, and the “pre-steady-state target cleavage rate” value was 0.0327 ± 0.0097.
For UCCUGCAAGAGCUUGCAUAGUAUUUAGUUA, the “pre-steady-state target cleavage rate” value was 0.0403 ± 0.01.
